Test results published in the supplement of paper PMC11417369.
The other results are listed elsewhere or left out.

tested on: PfSIP2 AP2 domain 1 (GST-tagged); experiment: gcPBM binding intensity (ln(normalized median fluorescence intensity)); higher = stronger DNA binding
How it was run: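 The binding buffer was 1× PBS containing 1% milk, 0.2 mg/ml BSA, 0.5% salmon testes DNA and 0.03% Triton X-100. In it, GST-tagged P. falciparum DNA-binding domains expressed in E. coli were applied for 1 h to an Agilent 4 × 180k array of primer-extended double-stranded 36-bp intergenic genomic probes plus negative controls. Binding intensity, read with Alexa488 anti-GST antibody and a 488 nm scan, is the highest Masliner-normalised natural-log median intensity across replicate spots of either probe orientation.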

Sequence | gcPBM binding intensity (ln)
TGTACATAAATCTAATTATTATATGTGTATATATAT [CACACA_negctrl_site1582] | 7.81
AGTACAGACATAGACACACACACACCCATAAAAAAA [CACACA_site1515] | 7.24
TTAAGATAGCAAATATGTACACATTTGTAAAATAAA [XGTACX_site4837] | 7.25
TAAAAATTCAATTGCACACGCACATATTTTAATAAG [CACACA_site2014] | 7.12
AATATAATAATAAAAACACACACGTTGATTGTATTA [CACACA_site2381] | 6.86
CGTATGCAAGGAACCACACACACACCCATAAATGTA [CACACA_site749] | 7.11
AAAAAATAGACATATACACACATATGTATTTATAAT [CACACA_site5225] | 6.97
TTAAAAATAAAAAATACACACTCTAGTCCATGTAAC [CACACA_site3640] | 6.78
ATTTCATATAGTGTAGTGCAATTTTAAGCATCAAGG | 8.3
ATGTCATTATATACATGTACGCATATCTGTTTATCC [XGTACX_site3947] | 7.09
CCTATAATAAATAATACACACATATTGTAAATATAT [CACACA_site7496] | 6.94
TTTTTTTTTATAAGGTGTACGTAAAATGTGTAGGTC [XGTACX_site3585] | 8.36
TAAGTGCTTTTCAACTGTACCTTCCATTTATTTATT [XGTACX_site8589] | 7.06
TCTTGACTAAATATATGTACATATATTTTAATAATA [XGTACX_site701] | 7.09
ACTACATAATATTTACGTACCTAAAAAATTCTTATA [XGTACX_site509] | 7.19
TTCTTATTTTATATTTCACACATTTTTACTATACTT [CACACA_site5817] | 7.29
GTATTCAAAAGTGAAACATGCAATAATATATATATA [TGCATGCA_site617] | 8.83
AAAAAAAAAAAAAATACACACGTGAATGTATTGTTT [CACACA_site4856] | 7.17
AAGGAGCCTATGAACACACACATGTACCTATATTAA [CACACA_site7838] | 6.87

Sequence | gcPBM binding intensity (ln)
AGAATGAAATAATATACACACAAAGGAAAAATGTAA [CACACA_site3911] | 6.76
ATACGTATTTATTTCACACACGTTAAAAAAATAAAA [CACACA_site6027] | 7.08
ATAATTTTTATTTGTACACACATACAGATATATTAT [CACACA_site4701] | 7.08
GATATGTACTAATACACACACATATATATATATATA [CACACA_site1022] | 9.35
GATATAGATATTAATTGTACATATTATTTATTGTTA [XGTACX_site846] | 7.02
TTCTAAAAAGGGTGTACACAAACGAATGGAAAATAA [CACACA_site5483] | 8.11
CACACTAAAAGACACACACACACACGCATATAAATA [CACACA_site7874] | 7.43
AAATATATATATATATGTACACACACACATATAAAT [XGTACX_site847] | 7.43
ATTAAACATACATATACACACACACCCACCCACCCA [CACACA_site8057] | 7.76
TAGTGTAAAAAATACGCATGTGTACAAATATAATAA [TGCATGCA_site498] | 7.15
TAAAGGTGTAAAACTGCATGCTGGAGAAAAGTAAAA [TGCATGCA_site591] | 6.96
AATAATACGTTAAATGTTCTTACAAGTTGGTTTCAT [CACACA_negctrl_site1029] | 6.87
ATTATATAATATAATGCATGTGTTAATGAAAAATCT [TGCATGCA_site426] | 6.9
AAAAAAAAATTTGTATCACACACGTATTATAAAAAA [CACACA_site6] | 6.91
AAAAAAAAAAAAAAGTGTACCTTATTATACTTTAAT [XGTACX_site8439] | 7.19
TTATGATAACTTTGCACACACTTAGGAAAAGTTATG [CACACA_site6836] | 7.06
ATCTTTATTTTTAGCGCACACATAAAATAATAATAA [CACACA_site3458] | 7.75
CAAAGCATTTTATCTACACACATATATAAATAAATA [CACACA_site7500] | 6.88
TATTTTAACTTTTTTTCCTTTATTCATTTTTTTTTC [CACACA_negctrl_site971] | 6.75

Sequence | gcPBM binding intensity (ln)
TGATGCAAGATATATACACACATATAAATATAAATA [CACACA_site7429] | 6.98
TTTTTTTTTTTATGTGCACACAAAAGATGCTTATAT [CACACA_site2347] | 8.73
TATATATATATAATATGTACATATATATATTCTTAA [XGTACX_site6154] | 8.78
ATAATTCATGTTTAGTGTACAAAAAATTAAAGCAAC [XGTACX_site8891] | 7.49
AAATAATTTATATGTAGTACATGTTGTAGATAATTT [XGTACX_site1031] | 7.03
TGATTATATAAAAAAAAGAAAAAAAAAAAAAAAAAA [CACACA_negctrl_site819] | 7.08
ATGCATCATTTATTTGCACACCTATTATATACTTTT [CACACA_site2097] | 7.22
ATATGTACATATCTCATGCACTTAACAAAAAAAAAG [GTGCAC_site9898] | 8.42
TAAAGAGTCATGTGGTGTACCTGCTTCACCACATAT [XGTACX_site1288] | 6.89
TATATATTCATAAAGTGTACATGTTTATATATATAT [XGTACX_site7585] | 8.48
TTATTTTTAATATCGGTGCAACAAAAAGGAAAAGAT [GTGCAC_site9482] | 9.64
TATGTATAGATATATACACACTTCTGTGATACGAAA [CACACA_site7003] | 6.75
GATGATTCAATTTATGCACACTAAAAATTAATTATA [CACACA_site4308] | 8.82
CCATAGATATTTTATACACACATATAATATATTAAT [CACACA_site373] | 7.17
ACCAAAAGGGGATGTAGTACAATATGATTAGAAGAA [XGTACX_site3773] | 7
AAATAATATATTCCTTGTACTTATTTCAATGAATTC [XGTACX_site7719] | 6.83
ATAATCTGACAAATGTGTACACATATATATATATAT [XGTACX_site2379] | 9.71
TAACTTCAAACAAAATATGGTAAAAGTGGTTGAAAA [CACACA_negctrl_site42] | 7.03
AAAATACCCGGACACACACACATATATATATATATT [CACACA_site6137] | 7.2
